Source: article PMC6894885
No constants are given. Whether binding was seen depends on the method and setting. For some assays here: In cells and extracts the contact can be indirect. Some results given as binding are weak or reduced against the parent protein; the word gives no strength.

Chains of the proteins cited; added tags and fusions are not shown.
UniProt Q15596: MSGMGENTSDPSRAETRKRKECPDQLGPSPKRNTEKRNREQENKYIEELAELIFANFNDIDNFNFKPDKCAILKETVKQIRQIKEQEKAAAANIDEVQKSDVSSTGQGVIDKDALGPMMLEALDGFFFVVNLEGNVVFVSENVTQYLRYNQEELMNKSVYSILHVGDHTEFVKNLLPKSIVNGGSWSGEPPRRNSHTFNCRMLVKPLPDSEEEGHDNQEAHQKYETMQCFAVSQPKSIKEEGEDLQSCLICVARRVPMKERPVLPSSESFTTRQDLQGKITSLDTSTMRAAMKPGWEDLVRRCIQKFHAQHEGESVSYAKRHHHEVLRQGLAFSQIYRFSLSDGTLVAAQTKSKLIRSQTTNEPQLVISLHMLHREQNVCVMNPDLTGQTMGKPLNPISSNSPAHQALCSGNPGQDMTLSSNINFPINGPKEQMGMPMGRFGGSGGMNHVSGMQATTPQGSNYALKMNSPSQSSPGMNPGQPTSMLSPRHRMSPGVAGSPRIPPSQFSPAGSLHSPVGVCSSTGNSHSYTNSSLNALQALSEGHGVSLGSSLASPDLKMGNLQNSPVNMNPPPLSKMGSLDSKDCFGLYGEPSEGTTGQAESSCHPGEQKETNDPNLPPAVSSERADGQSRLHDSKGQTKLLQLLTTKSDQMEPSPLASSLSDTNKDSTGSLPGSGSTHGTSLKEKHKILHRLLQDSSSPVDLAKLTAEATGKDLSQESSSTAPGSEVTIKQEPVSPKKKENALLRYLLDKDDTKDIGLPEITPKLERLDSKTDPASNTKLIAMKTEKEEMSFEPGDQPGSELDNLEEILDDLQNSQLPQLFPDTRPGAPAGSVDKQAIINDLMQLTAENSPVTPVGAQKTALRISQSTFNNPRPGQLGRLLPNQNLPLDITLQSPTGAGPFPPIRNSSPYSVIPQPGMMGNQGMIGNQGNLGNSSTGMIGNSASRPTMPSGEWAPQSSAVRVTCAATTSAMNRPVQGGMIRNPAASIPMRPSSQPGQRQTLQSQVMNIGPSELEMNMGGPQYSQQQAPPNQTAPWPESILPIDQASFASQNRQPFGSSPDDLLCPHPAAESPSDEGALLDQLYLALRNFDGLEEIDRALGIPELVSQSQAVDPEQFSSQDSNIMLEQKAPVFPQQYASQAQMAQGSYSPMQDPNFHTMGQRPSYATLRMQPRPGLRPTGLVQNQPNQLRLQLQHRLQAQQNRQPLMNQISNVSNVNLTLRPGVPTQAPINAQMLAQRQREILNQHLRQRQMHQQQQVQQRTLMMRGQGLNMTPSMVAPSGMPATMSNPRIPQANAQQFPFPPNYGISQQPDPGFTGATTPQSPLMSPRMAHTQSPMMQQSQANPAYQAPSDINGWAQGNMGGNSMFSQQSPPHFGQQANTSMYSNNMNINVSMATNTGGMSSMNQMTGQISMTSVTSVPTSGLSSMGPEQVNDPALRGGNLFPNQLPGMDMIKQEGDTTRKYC

Assays:
[1] = target: Flag-tagged RTA-△PARS-II (Kaposi's sarcoma-associated herpesvirus (KSHV)) (UniProt F5HCV3); test: co-IP
[2] = target: GST-fused NCOA2 (human) (UniProt Q15596); test: pull-down; both purified

Substance	binding [1]	binding [2]
HA-tagged NCOA2, full length (from UniProt Q15596 1-1464)	no binding	
His-tagged RTA deletion His-C544-691 (from UniProt F5HCV3 544-691) (domain or fragment)		binds
